{"source": "PubChem BioAssay AID1476", "about": "(National Center for Advancing Translational Sciences (NCATS), 2009)", "note": "Screen size: about 200,000 compounds; about 4,500 (2.2%) were called active. This list was built around the results that the source calls inconclusive (neither active nor inactive); the mix of calls is not that of the screen. Calls come from the whole dose curve; as a rule, active = well fitted inhibition curve with a large enough effect; inconclusive = small, poorly fitted or top-dose-only effect, or effect the other way; inactive = flat fitted curve, though single readings scatter. A potency beside an inconclusive call is a rough fit, not a confirmed value. Potency is the fitted concentration of half-maximal effect; tags give direction and shape of the fitted curve.", "data": [{"target": "Cruzipain (Trypanosoma cruzi) (UniProt P25779)", "sequence (P25779 whole entry, looked up)": "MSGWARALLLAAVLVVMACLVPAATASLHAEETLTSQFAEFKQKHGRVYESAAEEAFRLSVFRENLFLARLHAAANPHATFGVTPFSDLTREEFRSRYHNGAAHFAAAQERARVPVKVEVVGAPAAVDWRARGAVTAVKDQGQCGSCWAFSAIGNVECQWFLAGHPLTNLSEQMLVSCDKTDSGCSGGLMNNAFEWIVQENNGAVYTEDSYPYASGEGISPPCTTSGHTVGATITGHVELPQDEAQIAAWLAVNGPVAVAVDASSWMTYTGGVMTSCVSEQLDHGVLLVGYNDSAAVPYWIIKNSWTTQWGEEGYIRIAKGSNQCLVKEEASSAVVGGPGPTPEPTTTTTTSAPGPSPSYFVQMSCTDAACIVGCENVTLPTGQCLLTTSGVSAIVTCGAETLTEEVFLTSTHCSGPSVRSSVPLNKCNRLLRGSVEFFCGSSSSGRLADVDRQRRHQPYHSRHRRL", "test": "qHTS Assay for Promiscuous and Specific Inhibitors of Cruzain (without detergent); note: nearly all actives have a fitted effect of over 40% in size;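 for max response, negative = inhibition: plate controls were enzyme without inhibitor for no effect and buffer without enzyme for full effect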", "conditions": "purified cruzain, Z-FR-AMC fluorescence, no detergent", "in_short": "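Detergent-free condition (0.00005% Triton X-100) in acetate buffer pH 5.5 with DTT. 1.5 nM enzyme and compound were pre-mixed 15 min, then 2 uM Z-FR-AMC substrate added; reaction progress from fluorescence change between first and third reads (60 s).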", "values": [{"molecule": "CCOCCc1nnc(NC(=O)C(=O)c2cc(C)n(-c3ccc(C)cc3C)c2C)s1", "Potency": "inconclusive: 39.8 µM [activator, single point]"}, {"molecule": "CC(=O)c1c(C)nn(CC(O)Cn2c3c(c4cc(C)ccc42)CCCC3=O)c1C", "note": "(configuration not stated)", "Potency": "inconclusive: 31.6 µM [activator, single point]"}, {"molecule": "CCc1ccccc1Nc1nn2c(=O)c3ccc(C(=O)NCCC4=CCCCC4)cc3nc2s1", "Potency": "active: 25.1 µM"}, {"molecule": "COc1cc(C(Nc2ccc(S(=O)(=O)N3CCC(C)CC3)cc2)C(=O)NCC2CCCO2)cc(OC)c1OC", "note": "(configuration not stated)", "Potency": "inconclusive: 20 µM [activator, partial curve]"}, {"molecule": "CCOC(=O)C1CCCN(C(=O)c2ccc3c(c2)sc2nc(-c4cccc(OC)c4)cn23)C1", "note": "(configuration not stated)", "max response, negative = inhibition": "inactive: 8.77%"}, {"molecule": "Cc1ccccc1-c1noc(CSc2nc3ccccc3[nH]2)n1", "max response, negative = inhibition": "inactive: -6.38%"}, {"molecule": "O=C(CSc1nnc(-c2ccco2)o1)N1c2ccccc2CCc2ccccc21", "Potency": "inconclusive: 31.6 µM [inhibitor, single point]"}, {"molecule": "CC(C)COC(=O)Nc1nnc(SCCOc2ccccc2)s1", "Potency": "inconclusive: 31.6 µM [inhibitor, single point]"}, {"molecule": "CC(/C=N/NC(=O)c1cc(-c2ccc(Cl)cc2)nc2ccccc12)=C\\c1ccco1", "Potency": "active: 7.94 µM"}, {"molecule": "COC(=O)c1nc2n(n1)C(c1ccc([N+](=O)[O-])cc1)C(C(=O)Nc1ccc(Cl)cc1)=C(C)N2", "note": "(configuration not stated)", "Potency": "inconclusive: 39.8 µM [inhibitor, single point]"}, {"molecule": "CCOC(=O)CN(C(=O)Cn1nnc(-c2ccc(C)cc2)n1)C(CC)C(=O)NC1CCCC1", "note": "(configuration not stated)", "Potency": "inconclusive: 25.1 µM [activator, single point]"}, {"molecule": "CCCOc1ccc(C(=O)NNC(=S)NC(=O)c2cc(-c3ccc(Cl)cc3)nc3ccccc23)cc1", "Potency": "inconclusive: 3.16 µM [inhibitor, partial curve]"}, {"molecule": "CCc1ccc(C2C(C(=O)Nc3ccccc3OC)=C(C)Nc3c(C(=O)Nc4ccc(C)cc4)cnn32)cc1", "note": "(configuration not stated)", "Potency": "inconclusive: 31.6 µM [inhibitor, single point]"}, {"molecule": "O=C(CSc1nncn1-c1ccccc1)Nc1cc(Cl)cc(Cl)c1", "Potency": "active: 25.1 µM"}, {"molecule": "Cc1nn(-c2nc(-c3ccccc3)cc(C(F)(F)F)n2)c(C)c1Cl", "Potency": "inconclusive: 25.1 µM [activator, single point]"}, {"molecule": "COc1ccccc1N1CCN(c2ncnc3c2c(-c2ccccc2)cn3-c2cccc(Cl)c2)CC1", "Potency": "inconclusive: 12.6 µM [inhibitor, partial curve]"}, {"molecule": "CCCCOc1ccc(C(=O)Nn2c(-c3cccs3)nc3ccccc3c2=O)cc1", "Potency": "inconclusive: 39.8 µM [activator, single point]"}]}]}
